Laboratory results: patent publication US6159704, “Phosphatase modulator” (Novartis AG, dated 2000)

Molecular target: full length human eRF1 fused to the GAL4 transactivation domain (yeast; human, UniProt P62495)
Assay: yeast two-hybrid: His growth (HF7c) and colony colour in filter β-Gal assay (SFY526)
Source text: PCR products encoding three N-terminal (PP2Ac^50-309, PP2Ac^100-309 and PP2Ac^150-309) and three C-terminal (PP2Ac^1-259, PP2Ac^1-209 and PP2Ac^1-159) truncations of PP2Acα are subcloned into pGBT9 in-frame with the GAL4 DNA binding domain. Control plasmids encoding wild-type GAL4 protein (pCL1), SV40 large T antigen (pTD1), p53 (pVA3) and lamin C (pLAM5'), the latter three fused to the appropriate domains of GAL4, are provided by the manufacturer and used for control interactions. Expression constructs are transformed into *S. cerevisiae* host strains SFY526 (lacZ reporter gene) and HF7c (lacZ and HIS3 reporter genes). […] The expression of the lacZreporter gene is determined by measuring β-galactosidase activity using 5-bromo-4-chloro-3-indolyl-β-D-galactoside [X-Gal] and O-nitrophenyl-β-D-galactoside [ONPG] as substrates, whereas the expression of HIS3 reporter gene is assessed by monitoring growth on triple selective SD medium lacking leucine, tryptophan and histidine. All media and reagents are prepared according to the manufacturer's recommendations. Transcriptional activation of reporter genes driven by wild-type GAL4 protein or brought about by the interaction between SV40 largeT and p53 are used as positive controls. […]

binding result: no binding
B1: PP2Ac^[…] fused to the GAL4 DNA binding domain (enzyme)
chain: not shown
